Consider 115 sequences from the BET-seq Pho4 binding data (Le et al. 2018).

This is one part of the list. Values were computed here from the reads of four pooled replicates and scatter widely.

In the test the target is T1, Pho4 (S. cerevisiae) (UniProt P07270).
T1 sequence: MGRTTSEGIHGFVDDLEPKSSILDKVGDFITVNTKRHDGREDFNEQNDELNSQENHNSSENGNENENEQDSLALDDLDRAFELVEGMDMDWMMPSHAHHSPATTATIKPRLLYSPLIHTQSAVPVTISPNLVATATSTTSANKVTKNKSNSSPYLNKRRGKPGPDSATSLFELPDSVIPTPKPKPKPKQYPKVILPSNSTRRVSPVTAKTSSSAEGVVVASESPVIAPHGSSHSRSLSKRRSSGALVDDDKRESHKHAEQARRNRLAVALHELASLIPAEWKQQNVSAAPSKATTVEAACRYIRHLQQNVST
Description: relative binding free energy (BET-seq); higher = weaker binding. The following applies: reference: library average.
As to TTACGCACGTGTATGG, the “relative binding free energy” value is -0.05 kcal/mol. Turning to GGGGACACGTGGAGGG, the “relative binding free energy” value was 0.02 kcal/mol. Take GGGGCCACGTGCGAGG: the “relative binding free energy” value was -0.04 kcal/mol. Consider TACGTCACGTGGTGTA, for which the “relative binding free energy” value was -0.16 kcal/mol.

On to ATTGACACGTGGGCAG, for which the “relative binding free energy” value is -0.26 kcal/mol.

For the sequence GGGGTCACGTGGAGAT, the “relative binding free energy” value is 0.25 kcal/mol. GGTTGCACGTGGAGAC: the “relative binding free energy” value worked out at 0.1 kcal/mol. For GAATACACGTGAGGAG the value was 0.42 kcal/mol. With TGTTGCACGTGTTGAC, the “relative binding free energy” value was 0.12 kcal/mol. Consider GGCATCACGTGCGGGG, for which the “relative binding free energy” value was 0.04 kcal/mol. As to GCGGGCACGTGTCGGT, the “relative binding free energy” value was -0.07 kcal/mol.

As for CGAGTCACGTGATGTG, the “relative binding free energy” value was determined as 0.14 kcal/mol.

TTGATCACGTGTGCGA: the “relative binding free energy” value turned out to be 0.11 kcal/mol.

Regarding GTTGCCACGTGGGTGG, the “relative binding free energy” value was -0.17 kcal/mol.

Turning to ATAGACACGTGTGAGT, the “relative binding free energy” value came to 0.02 kcal/mol. GTTGTCACGTGGGAAT: the “relative binding free energy” value turned out to be 0.05 kcal/mol. On to GGTCACACGTGGTGTA, for which the “relative binding free energy” value worked out at 0.04 kcal/mol. For AAATTCACGTGATGTG, the “relative binding free energy” value is 0.24 kcal/mol.

Consider TGGTGCACGTGCATTT, for which the “relative binding free energy” value was found to be 0.05 kcal/mol. With GATGTCACGTGCTGTG the figure was 0.05 kcal/mol; with ATGTGCACGTGTGGGT, 0.09 kcal/mol; with AAACTCACGTGGGATG, 0.21 kcal/mol. In the case of TTACACACGTGGTAGT, the “relative binding free energy” value was -0.05 kcal/mol. As for CTCATCACGTGTTGGG, the “relative binding free energy” value turned out to be 0.06 kcal/mol. With TTGCGCACGTGGGCCA the figure was -0.16 kcal/mol; with GGATCCACGTGGCGGT, 0.14 kcal/mol. With TGTTGCACGTGACCTT the figure was 0.02 kcal/mol; with TCAGGCACGTGTCGGG, -0.03 kcal/mol; with CTGAGCACGTGTGTGC, -0.1 kcal/mol. As for TTGGCCACGTGTAATT, the “relative binding free energy” value was found to be 0.01 kcal/mol.

Regarding TGAAGCACGTGGAAGT, the “relative binding free energy” value turned out to be 0.13 kcal/mol. In the case of AGGGTCACGTGGCGGG, the “relative binding free energy” value was -0.02 kcal/mol. As for TGATTCACGTGTGTTC, the “relative binding free energy” value worked out at 0.19 kcal/mol. Regarding TGGATCACGTGGTAGT, the “relative binding free energy” value stood at 0.07 kcal/mol. As to TCTTACACGTGGTGTA, the “relative binding free energy” value was 0.02 kcal/mol.

As for GTATACACGTGCTTTG, the “relative binding free energy” value is -0.09 kcal/mol. For the sequence ACTGGCACGTGGGTCT, the “relative binding free energy” value is -0.16 kcal/mol. With CGGGGCACGTGCCTGG, the “relative binding free energy” value is -0.27 kcal/mol. For TTGGACACGTGTTGTG the value was 0.11 kcal/mol; for TTGGACACGTGTTAGA, 0.1 kcal/mol; for TGGGGCACGTGATACT, -0.11 kcal/mol. For TATTGCACGTGGGGCA, the “relative binding free energy” value is -0.19 kcal/mol. For TTTTTCACGTGGCTTA the value was 0.14 kcal/mol; for ATTAGCACGTGTTTTA, -0.03 kcal/mol.

With ACTGTCACGTGGTGCT, the “relative binding free energy” value turned out to be 0.02 kcal/mol. With GGTAGCACGTGTAGCG the figure was 0.09 kcal/mol; with ATGCGCACGTGGGGGA, -0.19 kcal/mol; with TCGCGCACGTGTTGTG, -0.2 kcal/mol. Turning to AAAGGCACGTGCTGTG, the “relative binding free energy” value was -0.23 kcal/mol.

In the case of TGGATCACGTGCAGGG, the “relative binding free energy” value worked out at 0.08 kcal/mol. With ACGTTCACGTGGGTTG, the “relative binding free energy” value came out at 0.16 kcal/mol. For the sequence TACTGCACGTGTGGGG, the “relative binding free energy” value was -0.02 kcal/mol. For TACGGCACGTGTTGTT, the “relative binding free energy” value is -0.05 kcal/mol. TTTTTCACGTGCGAGT: the “relative binding free energy” value worked out at 0.26 kcal/mol.

As for CGAGACACGTGGGCGG, the “relative binding free energy” value was -0.03 kcal/mol. TTAAACACGTGTTGTC: the “relative binding free energy” value is -0.02 kcal/mol. For ATTTGCACGTGACGGG the value was 0.16 kcal/mol. In the case of TCTGTCACGTGCGTTG, the “relative binding free energy” value was -0.08 kcal/mol. TATTCCACGTGGTGCG: the “relative binding free energy” value was -0.01 kcal/mol. With CGTGGCACGTGTAGGT, the “relative binding free energy” value was -0.13 kcal/mol. As to TAGGCCACGTGAATGT, the “relative binding free energy” value is 0.26 kcal/mol. GGAAGCACGTGGGTTA: the “relative binding free energy” value was -0.14 kcal/mol. As to TAGACCACGTGAGGTT, the “relative binding free energy” value was 0.29 kcal/mol.

As to ATGTGCACGTGGGTAT, the “relative binding free energy” value is -0.21 kcal/mol. In the case of GGAGTCACGTGTATTA, the “relative binding free energy” value stood at 0.15 kcal/mol.

GTAAGCACGTGGTTGC: the “relative binding free energy” value amounted to 0 kcal/mol. Take CGCGTCACGTGGAGTT: the “relative binding free energy” value amounted to 0.2 kcal/mol. In the case of GTTGCCACGTGGACGG, the “relative binding free energy” value was 0.05 kcal/mol. With CATAACACGTGTGTGT, the “relative binding free energy” value was -0.02 kcal/mol. On to AATTTCACGTGTGGGG, for which the “relative binding free energy” value was found to be 0.25 kcal/mol.

With GGTCTCACGTGTTCGT, the “relative binding free energy” value was 0.21 kcal/mol. For TTGTTCACGTGGAGGA the value was 0.24 kcal/mol; for TTAACCACGTGGGTAT, -0.14 kcal/mol; for AGTGGCACGTGTTGAA, -0.11 kcal/mol. Turning to TGTAACACGTGTCGTG, the “relative binding free energy” value was -0.08 kcal/mol.

With TTGCGCACGTGTAGTG, the “relative binding free energy” value is -0.14 kcal/mol. For the sequence GGCTTCACGTGCGCGG, the “relative binding free energy” value amounted to 0.11 kcal/mol. Consider AGTGGCACGTGTTTGC, for which the “relative binding free energy” value was -0.05 kcal/mol. Consider AAAGGCACGTGGTTGT, for which the “relative binding free energy” value is -0.16 kcal/mol. With TAGTGCACGTGAAAAG, the “relative binding free energy” value amounted to 0.23 kcal/mol. As for TAGAGCACGTGAGGGA, the “relative binding free energy” value was 0.13 kcal/mol. For AGGGGCACGTGCAATT, the “relative binding free energy” value was -0.16 kcal/mol.

Take TGGAACACGTGAGGCG: the “relative binding free energy” value was determined as 0.13 kcal/mol. With GGGGACACGTGAGGAA the figure was 0.21 kcal/mol.

On to GGGGGCACGTGTCGCA, for which the “relative binding free energy” value is -0.21 kcal/mol.

For the sequence TGGGCCACGTGATGTT, the “relative binding free energy” value worked out at 0.01 kcal/mol. As for TTAATCACGTGGGTTA, the “relative binding free energy” value was -0.08 kcal/mol. In the case of TAAGACACGTGGTTAT, the “relative binding free energy” value was -0.06 kcal/mol. On to CCATTCACGTGGGTGG, for which the “relative binding free energy” value came out at 0.26 kcal/mol.

Consider ATGCGCACGTGTATGG, for which the “relative binding free energy” value is -0.11 kcal/mol. For AGGGTCACGTGTGCAT the value was -0.04 kcal/mol; for ATAATCACGTGTTTCT, 0.15 kcal/mol. With TGATGCACGTGGACGG the figure was -0.12 kcal/mol; with TTTTACACGTGCAGGA, 0.07 kcal/mol; with GGTGGCACGTGTCTAG, 0.04 kcal/mol. With GTGGGCACGTGACGTG the figure was 0.05 kcal/mol. As to GTTGTCACGTGCGGGC, the “relative binding free energy” value was 0.14 kcal/mol. On to GAGGGCACGTGATTTA, for which the “relative binding free energy” value turned out to be 0.16 kcal/mol. In the case of TGATACACGTGTCGGT, the “relative binding free energy” value worked out at 0.09 kcal/mol. As to AGAAACACGTGTTGGT, the “relative binding free energy” value stood at 0.17 kcal/mol.

Turning to GGGCTCACGTGTCTGT, the “relative binding free energy” value was 0.25 kcal/mol. For the sequence GTTGTCACGTGGCGTA, the “relative binding free energy” value amounted to 0.02 kcal/mol.

For the sequence AACGTCACGTGCGGGG, the “relative binding free energy” value amounted to 0.03 kcal/mol. Regarding AAAGGCACGTGAAGGA, the “relative binding free energy” value worked out at 0.1 kcal/mol. ATGGGCACGTGGTCCG: the “relative binding free energy” value was -0.26 kcal/mol. Take ACGGTCACGTGTGGGG: the “relative binding free energy” value stood at 0.05 kcal/mol. In the case of GGGTTCACGTGTAGTT, the “relative binding free energy” value was found to be 0.43 kcal/mol. For GTTGTCACGTGTGGAG the value was 0.19 kcal/mol; for CGGGACACGTGTCGGG, 0.1 kcal/mol. As to ATGCGCACGTGGTGGG, the “relative binding free energy” value is -0.15 kcal/mol.

With TGTTCCACGTGTGCGG, the “relative binding free energy” value came out at 0.13 kcal/mol. For TGTAACACGTGCTTTT the value was -0.13 kcal/mol. For the sequence CGTGTCACGTGGGCGG, the “relative binding free energy” value is -0.15 kcal/mol. Consider AGTAGCACGTGGTGGG, for which the “relative binding free energy” value was -0.14 kcal/mol. For AGTCGCACGTGTTAGT the value was -0.08 kcal/mol.
